In PubChem BioAssay AID445 (National Center for Advancing Translational Sciences (NCATS), 2006):
In all, about 110,000 compounds went through this assay and about 40 (0.04%) were called active. The shares of active, inactive and inconclusive entries below differ from those in the screen. Calls come from the whole dose curve; as a rule, active = well fitted curve in the direction sought with a large enough effect in the signal ratio (not every such curve was filed as active); inconclusive = small, poorly fitted or top-dose-only effect, or a change in a side signal; inactive = flat fitted curve, though single readings scatter; the % refers to the signal ratio. Where the call is inconclusive, the potency comes from a doubtful curve fit.

assay: IkB Signaling; settings: ABC-DLBCL IkBa-CBG/CBR dual luciferase ratio (green luciferase fused to IkBa over red control in OCI-Ly3 lymphoma cells), 4 h; IkBa stabilization activation: at 57.1 µM (top of the series), scaled: untreated 0%, proteasome inhibitor 100% unless noted;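 for IkBa stabilization activation: 0% = basal untreated cells and 100% = reference inhibitor full response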
In short: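 Curves were fitted separately to fusion (green), unfused (red) and ratio luminescence, then classed by r2, magnitude and activity. Cells: OCI-Ly3, 4 h compound plus doxycycline at 37C; 10 uM MG-132 defined full response.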
Potency is the fitted concentration of half-maximal effect.

Structure (SMILES) | IkBa stabilization activation | Potency
CN1CCN(S(=O)(=O)c2cccc(C(=O)Nc3sc4c(c3C(N)=O)CCCC4)c2)CC1 | inactive | 
COC(=O)c1c(-c2cccs2)csc1NC(=O)c1cccnc1 | inconclusive: 4.19% [signal inhibitor] | 
CCOC(=O)C1CCN(c2nc3ccccc3nc2Cl)CC1 | inconclusive: 2.07% [signal inhibitor] | 
Cc1ccc(-c2nc(S(=O)(=O)c3ccc(C)cc3)c(SCC(=O)c3ccccc3)o2)cc1 | inactive | 
CCN(C(=O)CSc1nc2ccccc2n1Cc1ccccc1C#N)c1ccccc1 | inconclusive: 4.38% [signal inhibitor] | 
Cc1ccc2c(C)c(C(=O)NCC(c3ccc(Cl)cc3)N3CCOCC3)oc2c1 (stereo unspecified) | inconclusive: 1.17% [signal inhibitor] | 
COc1cc(NC(=O)C2CCN(c3nnc(C)c4c(C)n(-c5ccccc5)nc34)CC2)cc(OC)c1 | inconclusive: -1.01% [signal inhibitor] | 
CCOc1ccc(S(=O)(=O)Nc2cccc(Cl)c2)cc1 | inconclusive: 12% [signal inhibitor] | 
Cc1ccc2c(c1)c(=O)c1ccccc1n2CCCC(=O)Nc1ccc(Cl)cc1C | inconclusive: 3.15% [signal inhibitor] | 
Oc1ccc2ccccc2c1C=NCc1cn2ccsc2n1 |  | inconclusive: 31.6 µM [rising, partial curve]
C[C@@H]1O[C@H](O[C@@H]2[C@H](C)O[C@H](O[C@@H]3[C@H](C)O[C@H](O[C@H]4CC[C@]5(C)[C@@H](CC[C@@H]6[C@H]5C[C@@H](O)[C@]5(C)[C@@H](C7=CC(=O)OC7)CC[C@]65O)C4)C[C@@H]3O)C[C@@H]2O)C[C@H](O)[C@@H]1O | inconclusive: 2.77% [signal inhibitor] [at 25.6 µM, scaled: untreated 0%, proteasome inhibitor 100%] | 
Cc1oc(-c2ccccc2F)nc1CSCC(=O)NCc1ccc2c(c1)OCO2 | inconclusive: 2.9% [signal inhibitor] | 
CCOC(=O)c1cc2c(N)c(C(=O)c3cc(C#N)c(SC)nc3C)sc2nc1C | inconclusive: 2.74% [signal inhibitor] | 
COc1ccc(OCC(=O)Nc2ccc(Cl)c(-c3nc4ncccc4o3)c2)cc1 |  | inconclusive: 31.6 µM [signal inhibitor]
COc1ccccc1CNc1ncncc1-c1ccccc1OC | inactive: -1.84% [at 11.4 µM, scaled: untreated 0%, proteasome inhibitor 100%] | 
O=C(NCc1nc2ccccc2n1Cc1ccccc1Cl)c1ccccc1 | inconclusive: 2.46% [signal inhibitor] | 
COCCn1c(SCC(=O)c2c(C)[nH]c3ccccc23)nc2cc(C(=O)NC(C)C)ccc2c1=O |  | inconclusive: 31.6 µM [signal inhibitor]
CCOc1ccc(CCNC(=O)Cn2ccc3cc(S(=O)(=O)N4CCCCC4)ccc32)cc1 | inconclusive: 0.956% [signal inhibitor] | 
COc1ccccc1N1CCN(Cc2cc(Br)c(O)c3ncccc23)CC1 |  | inconclusive: 2.51 µM [rising, full curve]
CC1CCc2c(sc3nc(C4CC4)nc(SCC(=O)NCc4ccco4)c23)C1 (stereo unspecified) | inactive | 
COc1cccc(CNC(=O)c2ccc3c(c2)N(Cc2ccc(F)cc2Cl)C(=O)c2ccccc2S3)c1 | inconclusive: 3.97% [signal inhibitor] | 

Structure (SMILES) | IkBa stabilization activation | Potency
Cc1ccc(Cl)cc1NC(=O)Nc1cn(CC(C)C)c(=O)c2ccccc12 | inconclusive: 15.2% [signal inhibitor] | 
Cc1ccccc1CN1C(=O)c2ccccc2Sc2ccc(C(=O)NCc3ccccc3)cc21 | inconclusive: 1.13% [signal inhibitor] | 
CC1CCN(S(=O)(=O)c2ccc3c(c2)N(CC(=O)NCc2ccccc2)C(=O)CO3)CC1 | inconclusive: -0.762% [signal inhibitor] | 
CCOC(=O)N1CCN(C(=O)CSCC(=O)Nc2nc(-c3cccs3)cs2)CC1 | inconclusive: -1.27% [signal inhibitor] | 
COC(=O)c1ccc(Cl)cc1NC(=O)N1CC=C(c2c[nH]c3ccccc23)CC1 | inactive | 
O=C(CSc1nc(Nc2ccccc2)nc(N2CCOCC2)n1)Nc1ccc2c(c1)OCCO2 | inconclusive: 3.13% [signal inhibitor] | 
O=C(Cn1ncc2c(=O)oc3ccccc3c21)Nc1cc(F)ccc1F | inactive | 
COc1ccc(OC)c(NC2=C(c3ccccc3)C(=O)c3ccccc32)c1 |  | inconclusive: 3.16 µM [rising, full curve]
Oc1ccccc1Nc1nc(-c2ccccc2)c2cc(Cl)ccc2n1 |  | inconclusive: 20 µM [signal inhibitor]
Cn1cc(CC(=O)Nc2cccc(C#N)c2)c2ccccc21 | inconclusive: 9.02% [signal inhibitor] | 
CCN(CC)c1nc(-c2ccc(C(C)(C)C)cc2)nc2ccccc12 | inconclusive: 15.2% [signal inhibitor] | 
O=C1CS(=O)(=O)C2(C(=O)N(Cc3cccc(F)c3)c3ccccc32)N1c1ccccc1 (stereo unspecified) | inconclusive: 3.21% [signal inhibitor] | 
Cc1cc(C)c2c(n1)nn1c(C3CC3)cc(C(F)(F)F)nc21 | inactive | 
CCc1ccccc1N(C)C(=O)c1cn(CC(C)C)c(=O)c2cc(OC)c(OC)cc12 | inconclusive: -3.57% [signal inhibitor] | 
O=C(OC1CCc2ccccc2C1=O)c1ccccc1O (stereo unspecified) | inactive | 
CC1CCCN(S(=O)(=O)c2ccc(C(=O)Nc3nnc(-c4ccccc4Cl)o3)cc2)C1 (stereo unspecified) | inactive | 
COc1ccc(-c2nn(CC(=O)NC3CCCC3)c3c2cnc2ccc(F)cc23)cc1 | inactive | 
Clc1ccc(Cn2cc(/C=N/n3cnnc3)c3ccccc32)cc1 | inconclusive: 3.5% [signal inhibitor] | 
Cc1c(NC(=O)c2cc([N+](=O)[O-])ccc2N2CCOCC2)cccc1-c1nc2ccccc2o1 | inconclusive: 4.66% [signal inhibitor] | 
Cc1ccc(NC(=O)c2nc(S(C)(=O)=O)ncc2N(Cc2ccccc2)Cc2ccco2)c(C)c1 | inconclusive: 1.19% [signal inhibitor] | 
